The other results are listed elsewhere or left out.
Assays:
Test in all cases: glycan array binding signal (z-score within array); higher = stronger binding
Settings in all cases: glycan notation: IUPAC condensed, linker removed
[1] = target: Gal(b1-4)GlcNAc(b1-2)Man(a1-6)[Man(a1-3)]Man(b1-4)GlcNAc(b1-4)GlcNAc
Method in brief: (§1)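 Columns mapping to the same glycan were averaged after glycan names were converted to IUPAC-condensed notation. The data come from 3228 arrays in the Consortium for Functional Glycomics database, limited to those with an available protein sequence. Binding is reported as a within-array Z-score averaged across arrays of one protein sequence and across linkers.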

[2] = target: Gal(b1-4)GlcNAc(b1-2)[Gal(b1-4)GlcNAc(b1-4)]Man(a1-3)[Gal(b1-4)GlcNAc(b1-2)Man(a1-6)]Man(b1-4)GlcNAc(b1-4)GlcNAc
Method in brief: as §1

[3] = target: Gal(b1-4)GlcNAc(b1-2)[Gal(b1-4)GlcNAc(b1-4)]Man(a1-3)[Gal(b1-4)GlcNAc(b1-2)[Gal(b1-4)GlcNAc(b1-6)]Man(a1-6)]Man(b1-4)GlcNAc(b1-4)GlcNAc
Method in brief: as §1

[4] = target: Gal(b1-4)GlcNAc(b1-2)[Gal(b1-4)GlcNAc(b1-4)]Man(a1-3)[GlcNAc(b1-4)][Gal(b1-4)GlcNAc(b1-2)Man(a1-6)]Man(b1-4)GlcNAc(b1-4)GlcNAc
Method in brief: as §1

[5] = target: Gal(b1-4)GlcNAc(b1-2)[Gal(b1-4)GlcNAc(b1-4)]Man(a1-3)[GlcNAc(b1-4)][Gal(b1-4)GlcNAc(b1-2)[Gal(b1-4)GlcNAc(b1-6)]Man(a1-6)]Man(b1-4)GlcNAc(b1-4)GlcNAc
Method in brief: as §1

[6] = target: Gal(b1-4)GlcNAc(b1-2)[Gal(b1-4)GlcNAc(b1-6)]Man(a1-6)[Gal(b1-4)GlcNAc(b1-2)Man(a1-3)]Man(b1-4)GlcNAc(b1-4)GlcNAc
Method in brief: as §1

[7] = target: Gal(b1-4)GlcNAc(b1-2)[Gal(b1-4)GlcNAc(b1-6)]Man(a1-6)[Gal(b1-4)GlcNAc(b1-2)Man(a1-3)]Man(b1-4)GlcNAc(b1-4)[Fuc(a1-6)]GlcNAc
Method in brief: as §1

[8] = target: Gal(b1-4)GlcNAc(b1-2)[Gal(b1-4)GlcNAc(b1-6)]Man(a1-6)[GlcNAc(b1-4)][Gal(b1-4)GlcNAc(b1-2)Man(a1-3)]Man(b1-4)GlcNAc(b1-4)GlcNAc
Method in brief: as §1

[9] = target: Gal(b1-4)GlcNAc(b1-2)[Gal(b1-4)GlcNAc(b1-6)]Man(a1-6)[GlcNAc(b1-4)][Gal(b1-4)GlcNAc(b1-2)[Gal(b1-4)GlcNAc(b1-4)]Man(a1-3)]Man(b1-4)GlcNAc(b1-4)[Fuc(a1-6)]GlcNAc
Method in brief: as §1

[10] = target: Gal(b1-4)GlcNAc(b1-3)Gal(b1-3)GalNAc
Method in brief: as §1

[11] = target: Gal(b1-4)GlcNAc(b1-3)Gal(b1-3)GlcNAc
Method in brief: as §1

[12] = target: Gal(b1-4)GlcNAc(b1-3)Gal(b1-4)Glc
Method in brief: as §1

[13] = target: Gal(b1-4)GlcNAc(b1-3)Gal(b1-4)GlcNAc
Method in brief: as §1

[14] = target: Gal(b1-4)GlcNAc(b1-3)Gal(b1-4)GlcNAc(b1-2)Man(a1-3)[Gal(b1-4)GlcNAc(b1-3)Gal(b1-4)GlcNAc(b1-2)Man(a1-6)]Man(b1-4)GlcNAc(b1-4)GlcNAc
Method in brief: as §1

[15] = target: Gal(b1-4)GlcNAc(b1-3)Gal(b1-4)GlcNAc(b1-2)Man(a1-3)[Gal(b1-4)GlcNAc(b1-3)Gal(b1-4)GlcNAc(b1-2)Man(a1-6)]Man(b1-4)GlcNAc(b1-4)[Fuc(a1-6)]GlcNAc
Method in brief: as §1

[16] = target: Gal(b1-4)GlcNAc(b1-3)Gal(b1-4)GlcNAc(b1-2)[Gal(b1-4)GlcNAc(b1-3)Gal(b1-4)GlcNAc(b1-6)]Man(a1-6)[Gal(b1-4)GlcNAc(b1-3)Gal(b1-4)GlcNAc(b1-2)Man(a1-3)]Man(b1-4)GlcNAc(b1-4)GlcNAc
Method in brief: as §1

[17] = target: Gal(b1-4)GlcNAc(b1-3)Gal(b1-4)GlcNAc(b1-2)[Gal(b1-4)GlcNAc(b1-3)Gal(b1-4)GlcNAc(b1-6)]Man(a1-6)[Gal(b1-4)GlcNAc(b1-3)Gal(b1-4)GlcNAc(b1-2)Man(a1-3)]Man(b1-4)GlcNAc(b1-4)[Fuc(a1-6)]GlcNAc
Method in brief: as §1

[18] = target: Gal(b1-4)GlcNAc(b1-3)Gal(b1-4)GlcNAc(b1-3)Gal(b1-4)GlcNAc
Method in brief: as §1

[19] = target: Gal(b1-4)GlcNAc(b1-3)Gal(b1-4)GlcNAc(b1-3)Gal(b1-4)GlcNAc(b1-2)Man(a1-3)[Gal(b1-4)GlcNAc(b1-3)Gal(b1-4)GlcNAc(b1-3)Gal(b1-4)GlcNAc(b1-2)Man(a1-6)]Man(b1-4)GlcNAc(b1-4)GlcNAc
Method in brief: as §1

[20] = target: Gal(b1-4)GlcNAc(b1-3)Gal(b1-4)GlcNAc(b1-3)Gal(b1-4)GlcNAc(b1-2)Man(a1-3)[Gal(b1-4)GlcNAc(b1-3)Gal(b1-4)GlcNAc(b1-3)Gal(b1-4)GlcNAc(b1-2)Man(a1-6)]Man(b1-4)GlcNAc(b1-4)[Fuc(a1-6)]GlcNAc
Method in brief: as §1

[21] = target: Gal(b1-4)GlcNAc(b1-3)Gal(b1-4)GlcNAc(b1-3)Gal(b1-4)GlcNAc(b1-2)[Gal(b1-4)GlcNAc(b1-3)Gal(b1-4)GlcNAc(b1-3)Gal(b1-4)GlcNAc(b1-6)]Man(a1-6)[Gal(b1-4)GlcNAc(b1-3)Gal(b1-4)GlcNAc(b1-3)Gal(b1-4)GlcNAc(b1-2)Man(a1-3)]Man(b1-4)GlcNAc(b1-4)[Fuc(a1-6)]GlcNAc
Method in brief: as §1

[22] = target: Gal(b1-4)GlcNAc(b1-3)Gal(b1-4)GlcNAc(b1-3)Gal(b1-4)GlcNAc(b1-3)Gal(b1-4)GlcNAc(b1-2)Man(a1-3)[Gal(b1-4)GlcNAc(b1-3)Gal(b1-4)GlcNAc(b1-3)Gal(b1-4)GlcNAc(b1-3)Gal(b1-4)GlcNAc(b1-2)Man(a1-6)]Man(b1-4)GlcNAc(b1-4)GlcNAc
Method in brief: as §1

B1: Pwp2 (Candida glabrata) (protein)
chain: MGSSHHHHHHSSGLVPRGSHMASKNPVELNNVCTFPNDYGRIPGFTVLVGRLGLLISASDYKELLRYPGAFLIATQDTMTTSPNFELTGFPFFTGLYGLTVFPLDLLVELRGYFVPPNSGQYTFTLSDSDDAAIIFLGNPSAFPCGDLQNWPKPSEEDITVTDHLFPSRTLYLIEGVAYPMRIAYYNGIGAGRLNAAFIDPSGTRHTNWEGYIWQYDPCSTCTYS
With B1 as the binder, how does the “glycan array binding signal (z-score)” value [1] read?
Its value is -0.14.

What about the “glycan array binding signal (z-score)” value [2] of the same binder?
Its value is 1.09.

And the “glycan array binding signal (z-score)” value [3]?
Its value is -0.603.

And the “glycan array binding signal (z-score)” value [4]?
Its value is -0.295.

And the “glycan array binding signal (z-score)” value [5]?
The value was -0.248.

And the “glycan array binding signal (z-score)” value [6]?
Its value is -0.407.

And the “glycan array binding signal (z-score)” value [7]?
Its value is 0.691.

What about the “glycan array binding signal (z-score)” value [8] of the same binder?
The value was -0.569.

What about the “glycan array binding signal (z-score)” value [9] of the same binder?
The value was -0.503.

What about the “glycan array binding signal (z-score)” value [10] of the same binder?
Its value is -0.128.

What about the “glycan array binding signal (z-score)” value [11] of the same binder?
The value was 0.239.

And the “glycan array binding signal (z-score)” value [12]?
The value was -0.415.

And the “glycan array binding signal (z-score)” value [13]?
Its value is -0.494.

And the “glycan array binding signal (z-score)” value [14]?
Its value is 0.573.

And the “glycan array binding signal (z-score)” value [15]?
The value was 2.6.

And the “glycan array binding signal (z-score)” value [16]?
The value was 0.214.

What about the “glycan array binding signal (z-score)” value [17] of the same binder?
Its value is 0.398.

And the “glycan array binding signal (z-score)” value [18]?
Its value is -0.625.

And the “glycan array binding signal (z-score)” value [19]?
The value was -0.035.

And the “glycan array binding signal (z-score)” value [20]?
The value was 0.935.

What about the “glycan array binding signal (z-score)” value [21] of the same binder?
Its value is -0.243.

What about the “glycan array binding signal (z-score)” value [22] of the same binder?
Its value is 0.211.
